The experiment has as its target GTPase KRas (Homo sapiens) (UniProt P01116). Nature of the experiment: Covalent labelling of cysteine mutants by fragments, read by mass spectrometry (AID 2202238). Further details: protein at 5 µM with 500 µM competing thiol for 1.5 h. The conditions noted are these: KRAS G12D cysteine mutants, disulfide tethering, MALDI-TOF labeling, stronger effect = higher value, fragment at 500 µM.

Where [1] appears, read: measured here: G75C mutant labeling.
Setting [2] is: measured here: H94C mutant labeling.
Setting [3] is: measured here: I36C mutant labeling.
Where [4] appears, read: measured here: L120C mutant labeling.
The mark [5] stands for this setting: measured here: M67C mutant labeling.
Setting [6] is: measured here: M72C mutant labeling.
Setting [7] is: measured here: N86C mutant labeling.
Setting [8] is: measured here: P121C mutant labeling.
Setting [9] is: measured here: S122C mutant labeling.
The mark [10] stands for this setting: measured here: S136C mutant labeling.
The mark [11] stands for this setting: measured here: G60C mutant labeling.
[12] abbreviates: measured here: N26C mutant labeling.

The structures appear in SMILES notation. The list shows a part of the results. Shown are side measurements of this screen, not its main read-out; they come without a call.

Chain of UniProt P01116 (P01116 whole entry, looked up, the tested form may be a part): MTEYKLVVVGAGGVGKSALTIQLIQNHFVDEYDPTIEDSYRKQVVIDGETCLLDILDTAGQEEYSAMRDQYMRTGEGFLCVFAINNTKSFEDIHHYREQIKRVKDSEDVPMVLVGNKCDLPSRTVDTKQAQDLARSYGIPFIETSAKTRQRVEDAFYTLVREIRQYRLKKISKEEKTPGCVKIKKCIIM

For the molecule `CC1(CNC(=O)CCS)CCS(=O)(=O)CC1`, the percent labeling reads like this: under setting [1], 7.3%; under setting [2], 29.7%; under setting [3], 34.5%; under setting [4], 32.8%; under setting [5], 28.8%; under setting [6], 9.7%. In addition, the percent labeling amounted to 15.7% under setting [7], 31.2% under setting [8], 33% under setting [9] and 42.6% under setting [10].
Regarding `O=C(CCS)N1CCCN(C(=O)c2ccc[nH]c2=O)CC1`, the percent labeling was 6% under setting [1]; 22.1% under setting [2]; 25.7% under setting [3]; 24.7% under setting [4]; 42.6% under setting [5]; 10.1% under setting [6]. For the same molecule, the percent labeling stood at 11.2% under setting [7], 28.8% under setting [8], 35.6% under setting [9] and 46.4% under setting [10].
For `O=C(CCS)N1CCN(c2cncc3nnnn23)CC1`, the percent labeling came to 10.9% under setting [1]; 0% under setting [2]; 14.6% under setting [3]; 0% under setting [4]; 6.5% under setting [5]; 2.8% under setting [6]. Further, the percent labeling runs as follows: under setting [7], 0%; under setting [8], 9.4%; under setting [9], 7.5%; under setting [10], 0%.
As for `Cc1ccc(-c2cc(C(=O)NCCS)[nH]n2)cc1`, the percent labeling stood at 7.2% under setting [11]; 11.7% under setting [1]; 8.4% under setting [2]; 8.3% under setting [3]; 11.9% under setting [4]; 6% under setting [5]. For the same molecule, the percent labeling by setting is: under setting [6], 63.2%; under setting [12], 30.8%; under setting [7], 7.7%; under setting [8], 7.2%; under setting [9], 6.2%; under setting [10], 13.6%.
On to `O=C1CC(C(=O)NCCS)C2CCCCC2N1` (stereo not given), for which the percent labeling under setting [11] is 21.6%; the percent labeling under setting [1] turned out to be 11.1%; the percent labeling under setting [2] is 35.5%; the percent labeling under setting [3] was 24.5%; the percent labeling under setting [4] turned out to be 34.6%; the percent labeling under setting [5] stood at 33.4%. For the same molecule, the percent labeling was found to be 17.1% under setting [6]; 35.6% under setting [12]; 24.5% under setting [7]; 31.4% under setting [8]; 29.4% under setting [9]; 44.9% under setting [10].
With `CC1C(C(=O)NCCS)CCN1c1ccccc1` (stereo not given), the percent labeling runs as follows: under setting [11], 27.7%; under setting [1], 0%; under setting [2], 6.6%; under setting [3], 0%; under setting [4], 0%; under setting [5], 5.5%. Moreover, the percent labeling is, setting by setting: under setting [6], 0%; under setting [12], 5.3%; under setting [7], 0%; under setting [8], 7.3%; under setting [9], 0%; under setting [10], 9.8%.
For `O=C(CCS)NC1CCC2(CC1)CC(O)C2` (stereo not given), the percent labeling reads like this: under setting [1], 14%; under setting [2], 33.4%; under setting [3], 25.2%; under setting [4], 28.4%; under setting [5], 35.7%; under setting [6], 25.9%. In addition, the percent labeling amounted to 22.9% under setting [7], 38.2% under setting [8], 35.9% under setting [9] and 50.8% under setting [10].
Regarding `O=C(O)Cc1ccc(S(=O)(=O)N2CCC(C(=O)NCCS)CC2)cc1`, the percent labeling reads like this: under setting [11], 28.4%; under setting [1], 15.7%; under setting [2], 28.6%; under setting [3], 21.8%; under setting [4], 33.7%; under setting [5], 22.8%. Also, the percent labeling runs as follows: under setting [6], 13.2%; under setting [12], 39.7%; under setting [7], 23.3%; under setting [8], 30.9%; under setting [9], 28.4%; under setting [10], 31.4%.
On to `COC(=O)c1cc(=O)[nH]c2c1CN(C(=O)CCS)CC2`, for which the percent labeling is, setting by setting: under setting [1], 10.6%; under setting [2], 25.5%; under setting [3], 34.3%; under setting [4], 21.4%; under setting [5], 31.5%; under setting [6], 23.2%. This molecule also showed a percent labeling under setting [7] of 21.1%, a percent labeling under setting [8] of 25.4%, a percent labeling under setting [9] of 29.1% and a percent labeling under setting [10] of 58.1%.
As to `COc1c(C)cnc(Cn2ccc(NC(=O)CCS)n2)c1C`, the percent labeling turned out to be 18.3% under setting [1]; 41.6% under setting [2]; 39.8% under setting [3]; 33.7% under setting [4]; 33.5% under setting [5]; 34.2% under setting [6]. Moreover, the percent labeling is, setting by setting: under setting [7], 37.7%; under setting [8], 28.4%; under setting [9], 26.4%; under setting [10], 47.2%.
`COc1ccc2c(c1)c(C(=O)NCCS)c(C)n2C`: the percent labeling worked out at 33.7% under setting [11]; 8.6% under setting [1]; 25.3% under setting [2]; 13.7% under setting [3]; 19.7% under setting [4]; 19.3% under setting [5]. In addition, the percent labeling by setting is: under setting [6], 24.7%; under setting [12], 41.6%; under setting [7], 15.4%; under setting [8], 12.8%; under setting [9], 13.6%; under setting [10], 33.3%.
With `O=C(CCS)N1CCN(C(=O)Nc2ccc(Cl)cc2)CC1`, the percent labeling came out at 8.9% under setting [1]; 18.1% under setting [2]; 17.7% under setting [3]; 14.5% under setting [4]; 16.7% under setting [5]; 14.9% under setting [6]. This molecule also came in with a percent labeling under setting [7] of 18.3%, a percent labeling under setting [8] of 18.6%, a percent labeling under setting [9] of 16.4% and a percent labeling under setting [10] of 30.1%.
As to `O=C(CCS)Nc1ccc2c(c1)ncn2CC(F)(F)F`, the percent labeling reads like this: under setting [1], 10.6%; under setting [2], 24.5%; under setting [3], 24.6%; under setting [4], 27%; under setting [5], 25.7%; under setting [6], 25.7%. The percent labeling is 17.1% under setting [7], 21.7% under setting [8], 25.3% under setting [9] and 36.4% under setting [10].
Regarding `CC1(C)CC(C(=O)NCCS)C1C(F)(F)F` (stereo not given), the percent labeling under setting [11] amounted to 37.7%; the percent labeling under setting [1] stood at 9.6%; the percent labeling under setting [2] came to 21.7%; the percent labeling under setting [3] came to 14.8%; the percent labeling under setting [4] turned out to be 18.1%; the percent labeling under setting [5] was found to be 17.6%. Moreover, the percent labeling turned out to be 18.7% under setting [6]; 26.5% under setting [12]; 21.7% under setting [7]; 20% under setting [8]; 22.2% under setting [9]; 30.5% under setting [10].
In the case of `C[C@H](C(=O)NCCS)N1Cc2ccccc2C1=O`, the percent labeling by setting is: under setting [11], 32.6%; under setting [1], 13.6%; under setting [2], 30.9%; under setting [3], 25.1%; under setting [4], 43.5%; under setting [5], 38.7%. Also, the percent labeling is, setting by setting: under setting [6], 26.9%; under setting [12], 38.9%; under setting [7], 23.5%; under setting [8], 39.3%; under setting [9], 30.2%; under setting [10], 58.6%.
Consider `CCOC(=O)c1[nH]ncc1C1CCN(C(=O)CCS)CC1`, for which the percent labeling by setting is: under setting [1], 20.1%; under setting [2], 36%; under setting [3], 41.1%; under setting [4], 33.1%; under setting [5], 48.9%; under setting [6], 43%. Besides, the percent labeling reads like this: under setting [7], 19.6%; under setting [8], 39.8%; under setting [9], 44.6%; under setting [10], 63.5%.
Take `CN(CC(=O)Nc1ccc2c(c1)OCCO2)C(=O)CCS`: the percent labeling was 11.9% under setting [1]; 32.9% under setting [2]; 38% under setting [3]; 45.9% under setting [4]; 33.9% under setting [5]; 30.3% under setting [6]. Besides, the percent labeling is, setting by setting: under setting [7], 30%; under setting [8], 32.4%; under setting [9], 31.9%; under setting [10], 45.2%.
Regarding `COc1cccc(Cn2nc(C)c3c(NC(=O)CCS)[nH]nc32)c1`, the percent labeling runs as follows: under setting [1], 15%; under setting [2], 19.2%; under setting [3], 30%; under setting [4], 20.3%; under setting [5], 22.6%; under setting [6], 23.4%. Also, the percent labeling is, setting by setting: under setting [7], 14.2%; under setting [8], 15.8%; under setting [9], 18.4%; under setting [10], 47.2%.
Consider `O=C(NCCS)C(F)(F)c1ncc[nH]1`, for which the percent labeling under setting [11] turned out to be 28.6%; the percent labeling under setting [1] was 24.4%; the percent labeling under setting [2] was found to be 23.9%; the percent labeling under setting [3] was 20.1%; the percent labeling under setting [4] amounted to 30.5%; the percent labeling under setting [5] was 21.1%. In addition, the percent labeling runs as follows: under setting [6], 20.7%; under setting [12], 24.2%; under setting [7], 26.8%; under setting [8], 19.1%; under setting [9], 21.1%; under setting [10], 30.9%.
Consider `COc1ccc2c(c1)CC1(CCN(C(=O)CCS)CC1)C2=O`, for which the percent labeling runs as follows: under setting [1], 15.6%; under setting [2], 34%; under setting [3], 38%; under setting [4], 24.4%; under setting [5], 44.6%; under setting [6], 53.1%. Further, the percent labeling runs as follows: under setting [7], 28.1%; under setting [8], 26.2%; under setting [9], 24%; under setting [10], 48%.
In turn, `CCc1oc2ccccc2c1CC(=O)NCCS` gave a percent labeling under setting [11] of 59.6%; a percent labeling under setting [1] of 24.5%; a percent labeling under setting [2] of 24.6%; a percent labeling under setting [3] of 13%; a percent labeling under setting [4] of 35%; a percent labeling under setting [5] of 15.1%. The percent labeling by setting is: under setting [6], 36.6%; under setting [12], 26.5%; under setting [7], 15.9%; under setting [8], 18.8%; under setting [9], 14.6%; under setting [10], 31.8%.
Consider `O=C(CCS)Nc1ccc(-c2nnc3n2CCOC3)cc1`, for which the percent labeling reads like this: under setting [1], 12%; under setting [2], 22.1%; under setting [3], 34%; under setting [4], 30.5%; under setting [5], 26.9%; under setting [6], 37.6%. Besides, the percent labeling is, setting by setting: under setting [7], 18.8%; under setting [8], 24.1%; under setting [9], 23.2%; under setting [10], 33.2%.
Consider `O=C(CNC(=O)c1cc2ccccc2[nH]1)NCCS`, for which the percent labeling reads like this: under setting [11], 19.3%; under setting [1], 9.1%; under setting [2], 16.1%; under setting [3], 16.3%; under setting [4], 26.6%; under setting [5], 19.7%. Moreover, the percent labeling turned out to be 24.2% under setting [6]; 37.9% under setting [12]; 16.2% under setting [7]; 15.6% under setting [8]; 12.8% under setting [9]; 15.5% under setting [10].

For the origin of these results see PubChem BioAssay AID2202238 (Ras Initiative Chemistry Research Team, Frederick National …, 2025).
